# Measured values: article PMC4336329 (PLoS ONE, 2015)
# Out of some 310,000 compounds screened, about 2,200 (0.71%) showed an effect of 50% or more. Effects have a minus sign here. The list shows a part of the results.
# Target: human ether-à-go-go-related gene (hERG) potassium channel (human, UniProt Q12809)
# Assay: primary screen, population patch clamp on CHO cells stably expressing hERG
# human ether-à-go-go-related gene (hERG) potassium channel, sequence (Q12809 whole entry, looked up): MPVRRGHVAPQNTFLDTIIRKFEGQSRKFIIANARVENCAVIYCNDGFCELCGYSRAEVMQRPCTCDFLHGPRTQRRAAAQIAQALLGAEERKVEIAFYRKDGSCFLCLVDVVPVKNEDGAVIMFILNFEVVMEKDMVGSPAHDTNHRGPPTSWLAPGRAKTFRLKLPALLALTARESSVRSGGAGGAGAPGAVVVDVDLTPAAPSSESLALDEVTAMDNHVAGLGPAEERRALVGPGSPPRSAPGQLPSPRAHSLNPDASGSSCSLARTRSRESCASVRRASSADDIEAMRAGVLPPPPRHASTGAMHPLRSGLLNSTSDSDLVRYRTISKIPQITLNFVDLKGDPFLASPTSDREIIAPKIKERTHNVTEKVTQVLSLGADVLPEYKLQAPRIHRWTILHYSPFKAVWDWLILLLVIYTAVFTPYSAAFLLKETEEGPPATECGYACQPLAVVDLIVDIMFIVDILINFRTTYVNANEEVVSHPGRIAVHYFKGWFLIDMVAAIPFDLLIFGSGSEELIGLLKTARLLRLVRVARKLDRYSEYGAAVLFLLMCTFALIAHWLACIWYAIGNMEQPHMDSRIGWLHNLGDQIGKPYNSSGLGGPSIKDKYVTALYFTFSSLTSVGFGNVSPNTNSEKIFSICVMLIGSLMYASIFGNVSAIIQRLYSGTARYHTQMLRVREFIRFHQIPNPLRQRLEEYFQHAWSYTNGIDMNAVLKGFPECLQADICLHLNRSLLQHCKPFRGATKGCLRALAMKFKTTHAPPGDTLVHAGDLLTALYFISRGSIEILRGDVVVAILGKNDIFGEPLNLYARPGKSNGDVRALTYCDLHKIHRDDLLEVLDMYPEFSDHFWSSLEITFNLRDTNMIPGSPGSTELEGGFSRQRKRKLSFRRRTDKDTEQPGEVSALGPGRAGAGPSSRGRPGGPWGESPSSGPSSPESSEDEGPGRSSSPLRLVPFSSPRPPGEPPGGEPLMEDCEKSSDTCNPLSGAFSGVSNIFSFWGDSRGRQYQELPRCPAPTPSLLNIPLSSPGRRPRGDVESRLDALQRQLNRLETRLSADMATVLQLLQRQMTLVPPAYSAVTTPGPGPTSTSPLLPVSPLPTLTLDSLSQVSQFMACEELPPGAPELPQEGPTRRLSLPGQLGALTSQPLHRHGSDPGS
row,SMILES,"hERG current change (%, negative = inhibition) at 1uM [%]"
1,O=C(Nc1ccc2c(c1)OCO2)Oc1ccccc1,5.63
2,CCOc1ccc(CCNC(=O)COC(=O)Cn2cnc3c2c(=O)n(C)c(=O)n3C)cc1OCC,9.55
3,CCCCCn1c(CN2CCN(c3cccc(Cl)c3)CC2)nc2c1c(=O)n(C)c(=O)n2C,-5.11
4,COc1ccc(C(=O)NCc2nnc(SCC(=O)Nc3ccc4c(c3)OCO4)o2)cc1,13
5,CCCOC(=O)C1=C(C)NC2=C(C(=O)CCC2)C1c1cccs1 (stereo not shown),8.64
6,COc1ccc(C(=O)CN2C(=O)NC3(CCc4ccccc43)C2=O)c(OC)c1 (stereo not shown),8.22
7,CC(=O)N1c2ccc(S(=O)(=O)N3CCCC3C(=O)Nc3ccc(C)cc3)cc2CC1C (stereo not shown),-7.07
8,CCCOc1ccccc1NC(=O)CC1Nc2ccccc2NC1=O (stereo not shown),12.2
9,CCc1ccc2c(c1)C(NC(C)=O)C(=O)N2CCN1CCOCC1.Cl (stereo not shown),5.3
10,COc1ccc(NS(=O)(=O)c2ccc3c(c2)NC(=O)CO3)cc1,11.8
11,O=C(c1ccc2snnc2c1)N1CCN(c2ccccn2)CC1,-0.237
12,O=C1/C(=C\c2ccsc2)NC(=S)N1c1ccccc1,9.16
13,C/C=C/C(=O)OCC(=O)Nc1ccc(OC)c(OC)c1,2.95
14,CC1CCCC(C)N1C(=O)COC(=O)c1c[nH]c2ccccc12 (stereo not shown),9.94
15,O=C1CC2(CCN(C(=O)c3cccc(F)c3)CC2)Oc2ccccc21,-32.6
16,C=C(C)C1CC=C(C)/C(=N/NC(=O)COc2ccccc2C)C1 (stereo not shown),4.71
17,Cc1ccccc1CN1C(=O)c2ccccc2S(=O)c2ccc(C(=O)NCCCN3CCOCC3)cc21 (stereo not shown),-14.3
18,COc1cc(/C=N/Nc2nc(N3CCCC3)nc(N3CCCC3)n2)ccc1OCc1ccccc1F,14.2
19,CSc1nc2ccc(NS(=O)(=O)c3c(Cl)cccc3Cl)cc2s1,6.4
20,O=C(CSCc1cccc(CSCC(=O)Nc2ccc3ccccc3c2)n1)Nc1ccc2ccccc2c1,8.91
21,COc1cccc(Nc2nc(Nc3ccc(Cl)c(C(=O)O)c3)nc(C)c2[N+](=O)[O-])c1,9.52
22,CC(=O)N(C(C)=O)N1C(=O)c2cccc3c(N4CCOCC4)ccc(c23)C1=O,4.95

row,SMILES,"hERG current change (%, negative = inhibition) at 1uM [%]"
1,Cc1ccccc1-n1nnnc1SC1CCOC1=O (stereo not shown),8.46
2,CC(OC(=O)c1ccc(S(=O)(=O)N(C)c2ccccc2)cc1)C(=O)NCCC1=CCCCC1 (stereo not shown),8.78
3,Cc1cccc(C)c1-n1c(C)cc(/C=N/NC(N)=S)c1C,9.78
4,COc1ccccc1Nc1ccc(C(=O)O)cc1[N+](=O)[O-],11.6
5,Cl.Fc1ccc(C2CCNCC2COc2ccc3c(c2)OCO3)cc1 (stereo not shown),6.32
6,CN(C)c1ccc(CNn2cnnc2SCc2ccc(F)cc2)cc1,0.965
7,COc1cccc(CN2CCN(Cc3ccco3)CC2)c1.O=C(O)C(=O)O,18
8,CC(C)(C)NC(=O)C(c1cccs1)N(Cc1cccs1)C(=O)c1csnn1 (stereo not shown),-5.61
9,Cc1ccc(-n2c(C)n[nH]c2=S)cc1C,10.8
10,COc1ccc(-c2cn(CCC(=O)O)c(C)n2)cc1,7.25
11,CN(C)c1ccc(/C=N/N2C(=S)SC(C)(C)C2N(O)C(=O)Nc2ccc([N+](=O)[O-])cc2)cc1 (stereo not shown),5.86
12,O=C(c1ccccc1Cl)N(Cc1ccc(Br)cc1)N1C(=O)CCCC1=O,10.2
13,O=C(c1ccco1)N1CCN(CC(=O)N(C2CCCCC2)C2CCS(=O)(=O)C2)CC1 (stereo not shown),13.9
14,O=C(Nc1ccc(C(=O)N2CCN(c3ccccc3F)CC2)cc1)C1=CSCCO1,14
15,Cn1cnc(NCc2ccccc2)c1[N+](=O)[O-],12.2
16,O=C(Cc1cccs1)N/N=C/c1ccco1,16
17,Nc1cc(C(=O)N2CCN(c3ccc([N+](=O)[O-])cc3)CC2)ccc1N1CC2CC(C1)c1cccc(=O)n1C2 (stereo not shown),6.93
18,Cc1cc2c(cc1C)N(Cc1ccccc1)C1=NCCCN12.Cl,-26.6
19,Cc1cc(C)nc(SCC(=O)OCC(=O)N(C)c2c(N)n(Cc3ccccc3)c(=O)[nH]c2=O)n1,14.9
20,O=C(/C=C/c1ccc([N+](=O)[O-])cc1)NC1CC2CCC1C2 (stereo not shown),-9.35
21,O=C(N/N=C\c1ccc(Sc2ccccn2)o1)c1cccc(Br)c1,13.6
22,Cc1nn(C(C)C)c(C)c1CN1CCN(Cc2ccsc2)C(CCO)C1 (stereo not shown),11.9

row,SMILES,"hERG current change (%, negative = inhibition) at 1uM [%]"
1,Cc1cccc(OCCC(=O)OCC(=O)N2CCc3ccccc32)c1,13.2
2,Cc1ccc(NC(=O)N2CCC(C(=O)NCCC3=CCCCC3)CC2)cc1,-0.318
3,O=C1c2ccccc2NC(c2ccccc2)N1c1ccc(O)cc1 (stereo not shown),5.5
4,CCC(=O)Nc1ccc(Cl)c(NC(=O)c2ccccc2OC)c1,4.96
5,O=S(=O)(Nc1ccncc1Cl)c1cc(Cl)ccc1Cl,9.03
6,CCC(=O)Nc1ccc(NC(=O)CSc2nc3c(c(=O)n(C)c(=O)n3C)n2CC)cc1,7.12
7,C=C1CCN([C@@H](C)C(=O)NCc2cc(OC)c(OC)c(OC)c2)S(=O)(=O)c2ccccc21,11.7
8,Cc1nc2ccc(S(=O)(=O)NCC(=O)O)cc2s1,6.23
9,Cc1cccc(NC(=O)C(c2cccc([N+](=O)[O-])c2)N2CCCCC2)c1 (stereo not shown),14.9
10,O=C(CCN1C(=O)/C(=C/c2ccccc2F)SC1=S)NCCc1ccc(O)cc1,11.7
11,CC1=C(C(=O)OCC(C)C)C(c2ccccc2Cl)NC(=O)N1C (stereo not shown),9.59
12,Cc1cccc(N=C2SC(C)CN2C(=O)CN2C(=O)NC3(CCCC3)C2=O)c1 (stereo not shown),0.0383
13,O=C1Nc2ccc(Cl)cc2/C1=C/C1CC=CCC1 (stereo not shown),7.83
14,COc1cc(S(=O)(=O)Nc2cccnc2)ccc1F,2.55
15,Cc1ccc(C)c(NC(CC(=O)c2ccccc2)C(=O)OCC(=O)c2cccs2)c1 (stereo not shown),8.86
16,Cc1cc(C(=O)Nc2c(F)cc(F)cc2Br)cs1,15.2
17,O=C(CSc1nnc2c3ccccc3c3ccccc3c2n1)Nc1ccccc1,6.56
18,Nc1ccc(N2CCN(c3cccc(Cl)c3)CC2)cc1,1.01
19,Cc1cccc(C)c1NC(=O)NCc1ccco1,13.6
20,O=C(O)COn1c(-c2ccccc2)nc2ccc(Cl)cc21,-0.951
21,COc1ccc(S(=O)(=O)N2CCN(C)CC2)cc1NC(=O)c1ccccc1C,0.757
22,CCOC(=O)c1c(NC(=O)c2ccccc2)sc2c1CCc1ccccc1-2,9.87

row,SMILES,"hERG current change (%, negative = inhibition) at 1uM [%]"
1,Cn1c(CSCc2ccc(Cl)cc2)nnc1SCC(=O)Nc1nccs1,4.23
2,CC(C)c1ccc(NC2CCCN(C(=O)c3cccc4nccnc34)C2)cc1 (stereo not shown),5.47
3,O=C(COc1cccc2cccnc12)N/N=C1\SCC(=O)N1CCc1ccccc1,-0.0657
4,Cc1ccc(C)c(OCc2cc(C(=O)N3CCN(c4ccccc4)CC3)no2)c1,0.205
5,COC(=O)CCC(=O)NS(=O)(=O)c1ccc(N=NN2CCOCC2)cc1,5.65
6,COc1ccc(S(=O)(=O)NCC(c2ccc(F)cc2)N2CCN(C)CC2)cc1 (stereo not shown),-3.98
7,Brc1ccc(C2=Nc3cccc4cccc(c34)N2)o1,11.3
8,COc1ccc(S(=O)(=O)N2CCCCCC2)cc1C(=O)OCC(=O)NC(N)=O,8.64
9,Cc1cc(C(F)(F)F)nc(SCC(=O)NC2CCCCC2)n1,5.94
10,Cc1ccc(F)cc1NC(=O)COC(=O)c1ccc2ncsc2c1,10.2
11,Cc1nn(C(C)C(=O)N/N=C/c2ccc(N(C)C)cc2)c(C)c1[N+](=O)[O-] (stereo not shown),3.11
12,CCOC(=O)c1sc(NC(=O)Cc2c(F)cccc2Cl)nc1C,4.19
13,Cc1ccc(C(=O)N/N=C/C2=Cc3ccccc3OC2C)cc1 (stereo not shown),-3.19
14,Cc1cc(-n2c(C)cc(C(=O)CCl)c2C)no1,8.36
15,Cc1ccc(NC(=O)N2CCCC2C(=O)Nc2c(C)cc(C)cc2C)cc1 (stereo not shown),5.35
16,O=C(C1CCN(S(=O)(=O)c2ccc(Cl)cc2)CC1)N1CCCCCCC1,7.38
17,CSC1=N/C(=C\c2ccc(C)o2)C(=O)S1,1.62
18,O=C1CC(NC2CCN(C(=O)c3cccc(F)c3)CC2)C(=O)N1 (stereo not shown),15.1
19,O=C(c1ccc(NC(=O)C2(c3ccccc3)CCOCC2)cc1)N1CCOCC1,10.3
20,Cc1ccc(C(=O)CSc2nnc(-c3cccnc3)n2N)cc1,-0.97
21,C=CCn1c(N)c(C(=O)N2CCOCC2)sc1=S,11.9
22,COc1ccc(CN2C(=O)c3cccnc3C2=O)cc1S(=O)(=O)N1CCCCC1C (stereo not shown),10.9
